Data reported in the supplement of paper PMC3724861.
The list shows a part of the results.

tested on: T1, Caupolican (Caup) homeodomain DNA-binding domain; experiment: PBM E-score (8-mer, recovered from the published 9-mer minima) (E-score (dimensionless, -0.5 to 0.5)); Drosophila protein; higher = stronger relative binding preference, active = 0.31 or more
T1 sequence: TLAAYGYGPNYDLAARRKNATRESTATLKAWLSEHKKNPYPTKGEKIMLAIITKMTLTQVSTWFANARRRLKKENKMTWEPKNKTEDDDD
In short: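 An enrichment score, with higher meaning stronger, expresses relative binding preference for each short DNA word. The protein used was Caup's homeodomain DNA-binding domain (residues 214-303), produced by in vitro transcription and translation and tested at 100 nM on custom-designed protein binding microarrays. The 8-mer values were recovered from published 9-mer scores, each equal to the lower of its two constituent 8-mer scores.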

Sequence	PBM E-score
GCGAGCGC	inactive: -0.236
GACTTCAC	inactive: -0.0647
ATCCTTCA	inactive: -0.0121
CATTGGGC	inactive: -0.166
AAAACAAT	inactive: 0.177
CGTCCACC	inactive: -0.142
GGTAAGGA	inactive: 0.0232
ATTGCTTG	inactive: 0.132
TGAAGCCA	inactive: -0.0494
AAGCTGGT	inactive: -0.0354
CCACGTTC	inactive: -0.0535
ATAACAGC	inactive: 0.148
CTCTCAAA	inactive: -0.0152
TAGTTGAA	inactive: 0.0189
TATAGGCA	inactive: 0.0331
AAGTACCA	inactive: 0.195
AGACTCCA	inactive: -0.0865
AATAATAA	inactive: 0.15
TCACGCCA	inactive: -0.0512
GTCCAAGA	inactive: -0.0635
CACGATAC	inactive: 0.13
GCGTTTTA	inactive: -0.0186
CAGCCGAG	inactive: -0.176
CCATTTCC	inactive: 0.0359
AATTAAAT	inactive: 0.0955

Sequence	PBM E-score
ACGTAATG	inactive: 0.16
AAACAGAT	≥ 0.185
AGCTTTGG	inactive: -0.137
GTTCGACA	inactive: 0.274
CAATATCC	inactive: 0.053
AGTGCGGA	inactive: -0.0562
AGGGCCAC	inactive: -0.151
CCGGCTCC	inactive: -0.317
CTGTCTCA	inactive: 0.0247
GCGAAGCC	inactive: -0.24
CCGAAAAG	inactive: -0.0427
AGGGTCCC	inactive: -0.207
ATCCCTGA	inactive: -0.0475
GGAGAACC	inactive: -0.146
AGGCGCGG	inactive: -0.21
TAAACTTA	inactive: 0.147
ATGGGAGA	inactive: -0.0478
CTGTTTCA	inactive: 0.0519
GTGCCAAC	inactive: -0.0293
AGATCCAT	inactive: -0.0856
CAGAGCGC	inactive: -0.198
AAAATCGT	inactive: 0.0463
ACACCCCG	inactive: -0.0107
CTGCTTGC	inactive: -0.077
CAATTGAG	inactive: 0.00079

Sequence	PBM E-score
GCCTAGGA	inactive: -0.129
AACTAACG	inactive: 0.00611
ACCTGTCT	inactive: 0.144
ACTTAGCT	inactive: -0.0662
ATCTGTAA	inactive: 0.15
GCCCCGCA	inactive: -0.239
CGGCTTTA	inactive: -0.0682
ACAGCACA	≥ 0.115
AGTCGACC	inactive: -0.155
GCATCCGA	inactive: -0.0881
GCGAGAAC	inactive: -0.0702
TACGGCCA	inactive: -0.211
CCCGAAGA	inactive: -0.133
CCAAACGA	inactive: -0.0262
ATGGGCAG	inactive: -0.132
AAAGTCGC	inactive: -0.109
AATCAGAG	inactive: 0.0745
CGATCGGC	inactive: -0.135
GGACTAAA	inactive: -0.0546
CGTACTGA	inactive: 0.0782
ACGACGTC	inactive: -0.0337
CAAGAGAA	inactive: 0.139
CGCCCCTA	inactive: -0.159
AACAGTAG	inactive: 0.0772
CGGACTGA	inactive: -0.0762

Sequence	PBM E-score
GTAACACA	inactive: 0.307
AGCAAGTC	inactive: -0.00143
ATAACTGC	inactive: 0.0232
ATTTTCTG	inactive: 0.00378
AAGCCCCA	inactive: -0.232
ACGGAGCT	inactive: -0.224
ATCTATCG	inactive: 0.0935
AAGTCCGG	inactive: -0.131
GTCATTGA	inactive: 0.185
AAATCGGA	inactive: 0.0449
GATTCTAA	inactive: 0.0682
AAAGGCTA	inactive: -0.0366
ACCTATTC	inactive: 0.00769
ACCGCACA	inactive: -0.00685
ACGTCGGC	inactive: -0.0877
CCTCCAAA	inactive: -0.127
GCGTCACA	inactive: 0.0119
TAAACTGA	inactive: 0.0935
CACACCGC	inactive: -0.0293
AACATAGG	inactive: 0.241
AGTAAGAG	inactive: -0.0386
ACAAGGGA	inactive: 0.209
GCTGCGCA	inactive: -0.222
AGTTGTAG	inactive: 0.232
ACGCTCGA	inactive: -0.0857

Sequence	PBM E-score
CCGTATTC	inactive: -0.00905
AGCGGCCT	inactive: -0.293
AGCTGACA	inactive: 0.108
CCTTTGCA	inactive: -0.0006
GCTAAGTA	inactive: 0.091
GAGAAGCA	inactive: -0.0117
CTAATAAA	inactive: 0.134
AGGCGAAC	inactive: -0.03
GACGCCCA	inactive: -0.142
AACTAAGG	inactive: -0.015
AAGGCGTG	inactive: -0.0377
CGACCCTC	inactive: -0.203
GGCTTTGA	inactive: -0.13
ACATCCCA	inactive: 0.16
CAATAGAC	inactive: 0.139
GAGAGGGA	inactive: -0.175
ATCCCTAC	inactive: -0.0132
AGCTAACA	inactive: 0.146
CCGTTAGG	inactive: -0.194
AGGCCAAT	inactive: -0.0746
TGGTCAAA	inactive: 0.0685
CCAGCCCC	inactive: -0.234
AATTATGG	inactive: 0.0916
GTCGACAC	inactive: 0.175
CATCGTAC	inactive: 0.176

Sequence	PBM E-score
TACGTAAA	inactive: 0.169
CACCTTAA	inactive: -0.0428
GTGTTGGA	inactive: 0.187
CGGGTCAA	inactive: -0.0606
TGTGAACA	active: 0.31
ATGAATTG	inactive: 0.0886
GCACCCCA	inactive: -0.19
AATCAGGG	inactive: -0.0973
ACGGGACG	inactive: -0.211
GTCAGCGA	inactive: -0.0418
CCCACCAG	inactive: -0.123
ATGAGTCA	inactive: 0.0791
ATATTCAG	inactive: 0.129
AAAATACT	inactive: 0.04
AAATATGT	active: 0.335
CAAGTCCG	inactive: 0.0488
ACAATCGC	inactive: 0.0572
ACCACGGT	inactive: 0.0353
CCCGTAGA	inactive: -0.105
ACATGCCC	inactive: 0.291
AGGTCTAA	inactive: -0.0834
TTTCCAAA	inactive: 0.103
AGATTACG	inactive: 0.103
AGACCTTA	≥ -0.00031
TATAATAA	inactive: 0.205

Sequence	PBM E-score
CCAATGGG	inactive: -0.135
ACTCATGA	inactive: 0.119
ACCTCACC	inactive: -0.0864
TATATAAA	inactive: 0.192
CATTCTCA	inactive: 0.0391
GTTGATGA	inactive: 0.0578
CATACGCA	inactive: 0.0306
AGGACGAC	inactive: 0.056
AATTTATG	inactive: 0.147
CACGGCCG	inactive: -0.107
GATTTTGA	inactive: 0.142
CCATTACC	inactive: -0.0281
AGATCAGC	inactive: -0.0286
ATCTCTTC	inactive: 0.0107
ACTCGCGC	inactive: -0.157
CGAAAATA	inactive: 0.0964
GAGAGTTA	inactive: 0.011
TGGGTCAA	inactive: -0.0662
CGACGACG	inactive: -0.119
CATCCGCA	inactive: -0.0118
CTTTATTA	inactive: 0.109
AAACTTAT	inactive: 0.115
AGGCAAGA	≥ 0.00925
ATGAAGCG	inactive: -0.0578
ACCGGTTC	inactive: -0.103

Sequence	PBM E-score
CATCTAGC	inactive: 0.0524
CACGTTCC	inactive: 0.0171
AGGTCGCC	inactive: -0.202
AGAGTAGA	inactive: -0.0248
CAAACACA	inactive: 0.265
CAAGCTAG	inactive: -0.0491
CGCGACGA	inactive: -0.0716
CCCGGATC	inactive: -0.129
TGCACAAA	inactive: 0.132
AGCCATAC	inactive: -0.0319
AAAGATCC	inactive: -0.0594
AGGTTCCG	inactive: -0.0912
CTCTTTTA	inactive: 0.00936
CAGGGTCG	inactive: -0.262
AAGATCGT	inactive: 0.00731
CGGAATAA	inactive: -0.0285
ATGGTAAA	inactive: 0.125
CTTTTTAC	inactive: 0.0875
AGTTCTTG	inactive: 0.0824
CACTGCAC	inactive: -0.0121
GTTCTTCA	inactive: -0.0295
AAATCGTA	inactive: 0.105
GAATGGTA	≥ 0.18
ATGGCAAC	inactive: 0.0784
GTGTGTGA	inactive: 0.0881

Sequence	PBM E-score
CACACAGG	inactive: -0.0176
CACCCACG	inactive: -0.151
ATATGGCA	inactive: 0.115
GCTGCCAA	inactive: -0.0937
GATGTTGC	inactive: 0.234
ACAGACTC	inactive: 0.0867
CCGTTTAA	inactive: -0.0446
AGTGTCTC	inactive: -0.021
AATCCTCG	inactive: 0.00431
ACCAGTTA	inactive: 0.13
CGCTGTCA	inactive: 0.0371
CAGCACAC	inactive: -0.00172
ACAACAAG	active: 0.362
GTGTATCA	inactive: 0.276
GGACCCTA	inactive: -0.0629
GCTGCGGA	inactive: -0.178
CGAGTAAC	inactive: 0.141
CCCCAACG	inactive: -0.129
TTCGACAA	inactive: 0.279
ACTTCCCC	inactive: -0.172
CTAGCACA	inactive: -0.0509
ACGTGCAT	≥ 0.126
CTTAGGGA	inactive: -0.0959
